For four compounds, GI50 and TGI results are on record in PubChem BioAssay (NCI).

Each structure is given as a SMILES string.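 Five compound concentrations were applied to cells in 96-well plates for 48 hours; endpoints were derived by simple linear interpolation of the resulting dose-response curve. At the GI50, growth is halved. TGI: total growth inhibition.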

The assay deals with NCI-H322M lung. Put plainly: DTP human tumour cell line panel, 48 h.

For the compound `CC[C@@]12CC(C(=O)OC)=C3Nc4cc5c(cc4[C@@]34CCN(C[C@H]3O[C@H]31)[C@@H]24)[C@@H]1[C@H](O5)[C@@H](O)[C@@]2(CC)CC(C(=O)OC)=C3Nc4cc(O)ccc4[C@@]34CCN1[C@@H]24`, the concentration for 50% growth inhibition (GI50) was 0.205 µM and the total growth inhibition concentration (TGI) worked out at 6.82 µM.

Consider `Cc1ccc(-c2ccc(SCC(=O)Nc3ccc(S(N)(=O)=O)cc3Br)nn2)cc1`, for which the GI50 is 14.2 µM and the concentration for total growth inhibition (TGI) stood at 36 µM.

Consider `CCC(C)(C)c1ccc(OCCCCCCN2CCN(c3ccncc3)CC2)cc1`, for which the GI50 is 10.7 µM and the TGI amounted to 22.6 µM.

On to `Cc1cc2nc3c4ccccc4n(CC4=NCCN4)c3nc2cc1C`, for which the GI50 is 4.29 µM and the TGI is 16.4 µM.
